Measurements reported in the supplement of paper PMC8728848.
The list shows a part of the results.

What was measured:
Assay in all cases: glycan array binding signal (z-score within array); higher = stronger binding
Conditions in all cases: glycan notation: IUPAC condensed, linker removed
[1] = target: Gal(a1-3)Gal(b1-3)[Fuc(a1-4)]GlcNAc(b1-2)Man(a1-3)[Gal(a1-3)Gal(b1-3)[Fuc(a1-4)]GlcNAc(b1-2)Man(a1-6)]Man(b1-4)GlcNAc(b1-4)GlcNAc
Procedure, shortened: (§1)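 Glycan array data came from 3228 arrays in the Consortium for Functional Glycomics database, and only arrays with an available protein sequence were kept. Glycan names were put into IUPAC-condensed notation, and columns mapping to the same glycan were averaged. The binding signal is a within-array Z-score, averaged across arrays of one protein sequence run at different concentrations or buffers and across linkers. A negative Z-score can be read as non-binding.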

Gal(a1-3)Gal(b1-4)Glc = target: Gal(a1-3)Gal(b1-4)Glc
Procedure, shortened: as §1

Gal(a1-3)Gal(b1-4)GlcNAc = target: Gal(a1-3)Gal(b1-4)GlcNAc
Procedure, shortened: as §1

[2] = target: Gal(a1-3)Gal(b1-4)GlcNAc(b1-2)Man
Procedure, shortened: as §1

[3] = target: Gal(a1-3)Gal(b1-4)GlcNAc(b1-2)Man(a1-3)[Gal(a1-3)Gal(b1-4)GlcNAc(b1-2)Man(a1-6)]Man(b1-4)GlcNAc(b1-4)GlcNAc
Procedure, shortened: as §1

[4] = target: Gal(a1-3)Gal(b1-4)GlcNAc(b1-3)GalNAc
Procedure, shortened: as §1

[5] = target: Gal(a1-3)Gal(b1-4)GlcNAc(b1-6)GalNAc
Procedure, shortened: as §1

[6] = target: Gal(a1-3)Gal(b1-4)[Fuc(a1-3)]GalNAc
Procedure, shortened: as §1

[7] = target: Gal(a1-3)Gal(b1-4)[Fuc(a1-3)]GlcNAc
Procedure, shortened: as §1

[8] = target: Gal(a1-3)Gal(b1-4)[Fuc(a1-3)]GlcNAc(b1-2)Man(a1-3)[Gal(a1-3)Gal(b1-4)[Fuc(a1-3)]GlcNAc(b1-2)Man(a1-6)]Man(b1-4)GlcNAc(b1-4)GlcNAc
Procedure, shortened: as §1

Gal(a1-3)GalNAc = target: Gal(a1-3)GalNAc
Procedure, shortened: as §1

Gal(a1-3)GlcNAc = target: Gal(a1-3)GlcNAc
Procedure, shortened: as §1

[9] = target: Gal(a1-3)[Gal(a1-4)]Gal(b1-4)GlcNAc
Procedure, shortened: as §1

[10] = target: Gal(a1-4)Gal(b1-3)GlcNAc(b1-2)Man(a1-3)[Gal(a1-4)Gal(b1-3)GlcNAc(b1-2)Man(a1-6)]Man(b1-4)GlcNAc(b1-4)GlcNAc
Procedure, shortened: as §1

Gal(a1-4)Gal(b1-4)Gal = target: Gal(a1-4)Gal(b1-4)Gal
Procedure, shortened: as §1

Gal(a1-4)Gal(b1-4)GalNAc = target: Gal(a1-4)Gal(b1-4)GalNAc
Procedure, shortened: as §1

Gal(a1-4)Gal(b1-4)Glc = target: Gal(a1-4)Gal(b1-4)Glc
Procedure, shortened: as §1

Gal(a1-4)Gal(b1-4)GlcNAc = target: Gal(a1-4)Gal(b1-4)GlcNAc
Procedure, shortened: as §1

[11] = target: Gal(a1-4)Gal(b1-4)GlcNAc(b1-2)Man(a1-3)[Gal(a1-4)Gal(b1-4)GlcNAc(b1-2)Man(a1-6)]Man(b1-4)GlcNAc(b1-4)GlcNAc
Procedure, shortened: as §1

[12] = target: Gal(a1-4)Gal(b1-4)GlcNAc(b1-3)Gal(b1-4)Glc
Procedure, shortened: as §1

Gal(a1-4)GlcNAc = target: Gal(a1-4)GlcNAc
Procedure, shortened: as §1

Gal(a1-6)Glc = target: Gal(a1-6)Glc
Procedure, shortened: as §1

Gal(b1-2)Gal = target: Gal(b1-2)Gal
Procedure, shortened: as §1

Gal(b1-3)Gal = target: Gal(b1-3)Gal
Procedure, shortened: as §1

Gal(b1-3)Gal(b1-4)GlcNAc = target: Gal(b1-3)Gal(b1-4)GlcNAc
Procedure, shortened: as §1

Gal(b1-3)GalNAc = target: Gal(b1-3)GalNAc
Procedure, shortened: as §1

[13] = target: Gal(b1-3)GalNAc(a1-3)[Fuc(a1-2)]Gal(b1-4)Glc
Procedure, shortened: as §1

[14] = target: Gal(b1-3)GalNAc(a1-3)[Fuc(a1-2)]Gal(b1-4)GlcNAc
Procedure, shortened: as §1

Gal(b1-3)GalNAc(b1-3)Gal = target: Gal(b1-3)GalNAc(b1-3)Gal
Procedure, shortened: as §1

[15] = target: Gal(b1-3)GalNAc(b1-3)Gal(a1-4)Gal(b1-4)Glc
Procedure, shortened: as §1

[16] = target: Gal(b1-3)GalNAc(b1-3)Gal(b1-4)Glc
Procedure, shortened: as §1

[17] = target: Gal(b1-3)GalNAc(b1-3)Gal(b1-4)GlcNAc
Procedure, shortened: as §1

[18] = target: Gal(b1-3)GalNAc(b1-4)Gal(b1-4)Glc
Procedure, shortened: as §1

[19] = target: Gal(b1-3)GalNAc(b1-4)[Neu5Ac(a2-3)]Gal(b1-4)Glc
Procedure, shortened: as §1

Gal(b1-3)GlcNAc = target: Gal(b1-3)GlcNAc
Procedure, shortened: as §1

[20] = target: Gal(b1-3)GlcNAc(a1-3)Gal(b1-4)GlcNAc
Procedure, shortened: as §1

[21] = target: Gal(b1-3)GlcNAc(a1-6)Gal(b1-4)GlcNAc
Procedure, shortened: as §1

Gal(b1-3)GlcNAc(b1-2)Man = target: Gal(b1-3)GlcNAc(b1-2)Man
Procedure, shortened: as §1

B1: Epa12 (Candida glabrata) (protein)
chain: MGSSHHHHHHSSGLVPRGSHMLEPDNSLQIFDSFLSNPSKYPLGCSPKITNPKKGLSMELYSYPYRKKGSHPCWDPAYLDPNFPRVGYKKNKLIARVDGVSGDINFNFHPKRQCTPIADYLPPNFNYNEPITTTNFTMLLYGYFKPKVTGLHTFDISADDLLFMNFGAGNAFDCCRRDSTADTFGNYVAWAIWGRRIVRNKLTVRLDKGIYYPLRLFFNNRDYYGQMRLTFKTEHGSERITDFSDYFFSVDDTSEGCPGLITYESECADVKSSTVLETDYITIQAEKE
glycan array binding signal (z-score) [1]: 0.353
glycan array binding signal (z-score) (Gal(a1-3)Gal(b1-4)Glc): 1.87
glycan array binding signal (z-score) (Gal(a1-3)Gal(b1-4)GlcNAc): 2.74
glycan array binding signal (z-score) [2]: 1.54
glycan array binding signal (z-score) [3]: 2.04
glycan array binding signal (z-score) [4]: 3.19
glycan array binding signal (z-score) [5]: 1.91
glycan array binding signal (z-score) [6]: -0.246
glycan array binding signal (z-score) [7]: 0.985
glycan array binding signal (z-score) [8]: -0.179
glycan array binding signal (z-score) (Gal(a1-3)GalNAc): 0.912
glycan array binding signal (z-score) (Gal(a1-3)GlcNAc): -0.252
glycan array binding signal (z-score) [9]: 1.17
glycan array binding signal (z-score) [10]: 1.68
glycan array binding signal (z-score) (Gal(a1-4)Gal(b1-4)Gal): -0.269
glycan array binding signal (z-score) (Gal(a1-4)Gal(b1-4)GalNAc): -0.223
glycan array binding signal (z-score) (Gal(a1-4)Gal(b1-4)Glc): 2.06
glycan array binding signal (z-score) (Gal(a1-4)Gal(b1-4)GlcNAc): 3.53
glycan array binding signal (z-score) [11]: 0.51
glycan array binding signal (z-score) [12]: 1.9
glycan array binding signal (z-score) (Gal(a1-4)GlcNAc): 5.7
glycan array binding signal (z-score) (Gal(a1-6)Glc): 2.02
glycan array binding signal (z-score) (Gal(b1-2)Gal): 0.125
glycan array binding signal (z-score) (Gal(b1-3)Gal): 0.351
glycan array binding signal (z-score) (Gal(b1-3)Gal(b1-4)GlcNAc): 3.49
glycan array binding signal (z-score) (Gal(b1-3)GalNAc): 0.135
glycan array binding signal (z-score) [13]: -0.001
glycan array binding signal (z-score) [14]: -0.255
glycan array binding signal (z-score) (Gal(b1-3)GalNAc(b1-3)Gal): 0.01
glycan array binding signal (z-score) [15]: 0.144
glycan array binding signal (z-score) [16]: 1.05
glycan array binding signal (z-score) [17]: -0.297
glycan array binding signal (z-score) [18]: 0.12
glycan array binding signal (z-score) [19]: -0.313
glycan array binding signal (z-score) (Gal(b1-3)GlcNAc): 0.617
glycan array binding signal (z-score) [20]: -0.242
glycan array binding signal (z-score) [21]: 1.11
glycan array binding signal (z-score) (Gal(b1-3)GlcNAc(b1-2)Man): 1.01
